Data taken from the supplement of paper PMC6206098.
± gives the uncertainty stated by the source. Shown are siRNA guide strands that differ only in the seed, positions 2 to 7.

Tests used:
3LL = assay: cell viability relative to siNT1 control; higher = less toxic; conditions: concentration: 10 nM; 96 h; Mus musculus;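 also: Luminescence-based viability of cells reverse transfected in 384-well plates with lipid-complexed siRNAs built on a non-toxic 19mer backbone whose passenger strand carries 2′-O-methyl groups at positions 1 and 2, triplicates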
HeyA8 = assay: cell viability relative to lipid-only control; HeyA8 human ovarian and H460 human lung cancer; M565 mouse liver and 3LL mouse lung cancer; siNT1 is a non-toxic control siRNA; higher = less toxic; conditions: concentration: 10 nM; 96 h; Homo sapiens
H460 = assay: as above; conditions: concentration: 10 nM; 96 h; Homo sapiens
M565 = assay: as above; conditions: concentration: 10 nM; 96 h; Mus musculus
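For cell viability relative to lipid-only control in this document: reverse lipid transfection in 384-well plates, in triplicate, of duplexes on a non-toxic 19mer backbone with passenger strand 2′-O-methylated at positions 1 and 2, luminescence viability read-out.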

Sequence | cell viability (3LL) [%] | cell viability (HeyA8) [%] | cell viability (H460) [%] | cell viability (M565) [%]
UUGCUGUACAUGUAAACCAAA | 29.3 ± 8 | 85.8 ± 5.3 | 79.8 ± 2.6 | 19.7 ± 1.4
UCUGGCUACAUGUAAACCAAA | 73.2 ± 5.7 | 63.9 ± 4 | 31.4 ± 2.4 | 14.6 ± 1.8
UUCAGUAACAUGUAAACCAAA | 94.2 ± 7.9 | 91.5 ± 12 | 75.7 ± 13 | 88.7 ± 5.8
UGGACUGACAUGUAAACCAAA | 31.4 ± 3.4 | 50.3 ± 11 | 58.3 ± 12 | 17.8 ± 1.1
UUCCGGAACAUGUAAACCAAA | 82.5 ± 23 | 94.2 ± 14 | 86.3 ± 5.2 | 68.9 ± 8.4
UACAGACACAUGUAAACCAAA | 14.8 ± 2.5 | 8.9 ± 1.7 | 37.4 ± 6.6 | 10.7 ± 3.4
UCAUAAUACAUGUAAACCAAA | 94.4 ± 15 | 73.1 ± 5.5 | 41.9 ± 5.5 | 78.9 ± 14
UCCUGGGACAUGUAAACCAAA | 29 ± 9.9 | 4.09 ± 0.56 | 18.7 ± 2.6 | 14.9 ± 2.3
UAUACACACAUGUAAACCAAA | 109 ± 11 | 86.6 ± 6.3 | 61.6 ± 2.5 | 77.9 ± 5.2
UAGCAGAACAUGUAAACCAAA | 81.1 ± 7.5 | 76.7 ± 4.8 | 59.6 ± 4.7 | 39.3 ± 5.9
UAGUCCAACAUGUAAACCAAA | 40.8 ± 8.3 | 51.6 ± 9.4 | 75.1 ± 21 | 24 ± 3.9
UAAAUAUACAUGUAAACCAAA | 103 ± 5.4 | 101 ± 3.1 | 74.5 ± 8.2 | 94.8 ± 17
UCCAGCAACAUGUAAACCAAA | 103 ± 13 | 92 ± 12 | 71.9 ± 10 | 90.9 ± 28
UCGACCAACAUGUAAACCAAA | 96.8 ± 25 | 87.9 ± 6.5 | 84.4 ± 26 | 78.3 ± 23
UAAGGCUACAUGUAAACCAAA | 15.1 ± 7 | 11.5 ± 1.4 | 49.3 ± 9.8 | 7.19 ± 2.5
UUGCUUCACAUGUAAACCAAA | 66.1 ± 5.3 | 56.7 ± 2 | 79.6 ± 9.1 | 75 ± 12
UGCAACGACAUGUAAACCAAA | 90.8 ± 20 | 63 ± 5.1 | 65.4 ± 6 | 43 ± 1.2
UACCCGGACAUGUAAACCAAA | 73.3 ± 5.6 | 80.4 ± 12 | 64.2 ± 6.6 | 44.2 ± 14
UAAACUGACAUGUAAACCAAA | 110 ± 11 | 97.9 ± 7.2 | 85.5 ± 8.6 | 109 ± 18
UCAGUGAACAUGUAAACCAAA | 96.1 ± 15 | 69.2 ± 7.6 | 56.7 ± 12 | 68.9 ± 3.3

Sequence | cell viability (3LL) [%] | cell viability (HeyA8) [%] | cell viability (H460) [%] | cell viability (M565) [%]
UAGUUCGACAUGUAAACCAAA | 77.9 ± 1.3 | 61 ± 5.4 | 62.8 ± 7.8 | 23.3 ± 1.3
UCCGGCCACAUGUAAACCAAA | 12.6 ± 4 | 12 ± 1.2 | 34.3 ± 5 | 24.1 ± 6.6
UGUUCUUACAUGUAAACCAAA | 82.4 ± 3.8 | 65.4 ± 1.7 | 61.5 ± 11 | 12.9 ± 4.3
UAGGUCAACAUGUAAACCAAA | 71.4 ± 5.7 | 62.1 ± 1.9 | 82 ± 18 | 38.8 ± 4.5
UAGGCACACAUGUAAACCAAA | 30.6 ± 2.9 | 20.6 ± 3.3 | 42.7 ± 1.3 | 5.67 ± 0.3
UCCCGGGACAUGUAAACCAAA | 98.7 ± 16 | 89 ± 4.6 | 83.2 ± 10 | 62.2 ± 7.3
UCCCUUUACAUGUAAACCAAA | 122 ± 34 | 66.9 ± 4 | 61.6 ± 8 | 98.2 ± 15
UACCGUGACAUGUAAACCAAA | 82 ± 4.5 | 85.4 ± 9.1 | 64.5 ± 12 | 32.2 ± 7.6
UAGUUAUACAUGUAAACCAAA | 89.9 ± 7.5 | 22.8 ± 2.4 | 52.3 ± 12 | 43.2 ± 1.1
UAUCCUGACAUGUAAACCAAA | 107 ± 3.4 | 97.3 ± 6.5 | 94.7 ± 8.5 | 91.1 ± 4.1
UUUCCGUACAUGUAAACCAAA | 31.7 ± 2.8 | 71.8 ± 1.6 | 44 ± 3.6 | 42.4 ± 5
UGACGUCACAUGUAAACCAAA | 56 ± 8.7 | 95.8 ± 7.9 | 54.3 ± 3.8 | 15.2 ± 4.3
UGCAAGCACAUGUAAACCAAA | 14.9 ± 7.1 | 70.9 ± 2.4 | 64.4 ± 2.4 | 14.3 ± 1.3
UCGCCGGACAUGUAAACCAAA | 81.8 ± 10 | 54.3 ± 3.1 | 72.2 ± 4.9 | 51.7 ± 6.8
UUUCUUUACAUGUAAACCAAA | 99.8 ± 1.1 | 97.2 ± 2.2 | 53.6 ± 3.3 | 114 ± 16
UUUAACAACAUGUAAACCAAA | 102 ± 9.5 | 99.7 ± 7.3 | 85.4 ± 4.1 | 93.6 ± 4.9
UAGCGAUACAUGUAAACCAAA | 86 ± 11 | 68.1 ± 8.8 | 77.2 ± 17 | 80.7 ± 8
UCGCAUCACAUGUAAACCAAA | 75.2 ± 22 | 62.7 ± 4.2 | 68.5 ± 13 | 14.6 ± 3.1
UUAGGGAACAUGUAAACCAAA | 78.3 ± 8.1 | 86.3 ± 7.8 | 82.5 ± 11 | 83.3 ± 6.5
UAUGGAAACAUGUAAACCAAA | 117 ± 16 | 108 ± 4.4 | 104 ± 20 | 82.6 ± 5.3

Sequence | cell viability (3LL) [%] | cell viability (HeyA8) [%] | cell viability (H460) [%] | cell viability (M565) [%]
UUAAAUCACAUGUAAACCAAA | 41.6 ± 4.5 | 71.8 ± 1.5 | 61.7 ± 5.8 | 82.7 ± 4.3
UACAAGCACAUGUAAACCAAA | 37.8 ± 1.2 | 24.2 ± 2.7 | 64.7 ± 11 | 10.1 ± 2.7
UCAUGUAACAUGUAAACCAAA | 85.1 ± 22 | 80.2 ± 5.5 | 59.2 ± 13 | 60.7 ± 11
UCAUCGAACAUGUAAACCAAA | 92.4 ± 7.4 | 59.4 ± 7.6 | 53.5 ± 2.9 | 59.4 ± 7.3
UCUAGUGACAUGUAAACCAAA | 97.2 ± 17 | 90.5 ± 12 | 72.5 ± 5.4 | 76.5 ± 15
UAUCGGCACAUGUAAACCAAA | 72.7 ± 9.3 | 77.1 ± 7.2 | 69.7 ± 6.6 | 65.1 ± 20
UGUAGGCACAUGUAAACCAAA | 8.97 ± 5.7 | 3.7 ± 0.61 | 35.9 ± 0.88 | 5.46 ± 0.95
UUCUGCGACAUGUAAACCAAA | 49 ± 3.7 | 88.4 ± 3.7 | 62.6 ± 6.1 | 56.5 ± 2.3
UAUGGACACAUGUAAACCAAA | 32.8 ± 2.8 | 81.2 ± 7 | 72 ± 11 | 22.1 ± 3.7
UUCCUCCACAUGUAAACCAAA | 27.6 ± 4 | 26.7 ± 2.7 | 20.4 ± 3.3 | 56 ± 7.8
UGUGCGCACAUGUAAACCAAA | 61.4 ± 11 | 61.6 ± 6.7 | 50.9 ± 11 | 63.7 ± 12
UAGUGGGACAUGUAAACCAAA | 5.58 ± 1.2 | 3.8 ± 0.29 | 37.7 ± 3.9 | 18.5 ± 3.7
UCUUAGUACAUGUAAACCAAA | 90.4 ± 15 | 71.8 ± 7.2 | 62 ± 3.9 | 52.9 ± 7.5
UAAUACAACAUGUAAACCAAA | 121 ± 12 | 90.4 ± 9 | 101 ± 8.5 | 102 ± 19
UGGGAUCACAUGUAAACCAAA | 26.5 ± 2.8 | 2.8 ± 0.47 | 12.9 ± 2.8 | 20.5 ± 2.3
UCUGCCCACAUGUAAACCAAA | 35.8 ± 11 | 35.8 ± 4.8 | 38.9 ± 3.8 | 12.2 ± 3.4
UUGAAUAACAUGUAAACCAAA | 95.5 ± 5.7 | 93.4 ± 2.5 | 78.5 ± 3 | 96.7 ± 11
UCAAAUAACAUGUAAACCAAA | 90 ± 15 | 82.4 ± 6.9 | 74.5 ± 7 | 63.8 ± 5.5
UCUGGAGACAUGUAAACCAAA | 97.1 ± 14 | 71.6 ± 7.5 | 65.4 ± 5.8 | 70.3 ± 17
UCAUUAGACAUGUAAACCAAA | 99 ± 7 | 71.1 ± 3 | 61.5 ± 6.8 | 58.8 ± 9.8
